Data: the supplement of paper PMC9938546
Structures can show the parent of a compound that is named as a salt. The list shows a part of the results. Single values are uncertain, as repeats are few or missing.
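Also: viability estimated indirectly by image-based GFP quantification with live-cell imaging of the constitutively GFP-expressing human colorectal cancer line, no immune cells added.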

These molecules were tested on HCT116-GFP (assay: HCT116-GFP viability (GFP intensity) relative to untreated control, monoculture; higher = less cancer cell killing). Details: culture: HCT116-GFP monoculture; 10 µM; 72 h.
With `CNCCC=C1c2ccccc2C=Cc2ccccc21` [Norcyclobenzaprine] the HCT116-GFP viability was 78.8%. For `NC(=O)OCC(O)COc1ccc(Cl)cc1` (centres undefined) [Chlorphensin carbamate], the HCT116-GFP viability was 107%. With `COCCOC(=O)C1=C(C)NC(C)=C(C(=O)OC(C)C)C1c1cccc([N+](=O)[O-])c1` (centres undefined) [Nimodipine] the HCT116-GFP viability was 102%. `CN1C(C(=O)Nc2ccccn2)=C(O)c2ccccc2S1(=O)=O` [Piroxicam] gave an HCT116-GFP viability of 93.1%. With `COC(=O)CCc1ccc(OCC(O)CNC(C)C)cc1` (centres undefined) [Esmolol hydrochloride] the HCT116-GFP viability was 122%. In the case of `C[C@]12CCC(=O)C=C1C=C[C@@H]1[C@@H]2CC[C@@]2(C)[C@H]1CC[C@@]21CCC(=O)O1` [Canrenone], the HCT116-GFP viability is reported as 108%. In the case of `COc1cccc(N(C)C(=S)Oc2ccc3c(c2)CCCC3)n1` [Liranaftate], the HCT116-GFP viability is reported as 136%. Work on `CCCNC(C)C(=O)Nc1c(C)csc1C(=O)OC` (centres undefined) [Articaine hydrochloride] yielded an HCT116-GFP viability of 88.7%. In the case of `NCCc1cc[nH]n1` [Betazole hydrochloride], the HCT116-GFP viability is reported as 87.1%. `Cc1c(NC(C)C)c(=O)n(-c2ccccc2)n1C` [Isopyrin hydrochloride] was tested, and the HCT116-GFP viability was 109%. `CC(C[N+](C)(C)C)OC(N)=O` (centres undefined) [Bethanechol chloride] was tested, and the HCT116-GFP viability was 99.7%. Molecule `NS(=O)(=O)Cc1noc2ccccc12` [Zonisamide] has an HCT116-GFP viability of 100%. `CN(C)CCN(Cc1ccc(Cl)cc1)c1ccccn1` [Chloropyramine hydrochloride] gave an HCT116-GFP viability of 83.4%. With `COc1ccc2c(c1)C(=O)N(CCc1ccc(S(=O)(=O)NC(=O)NC3CCCCC3)cc1)C(=O)C2(C)C` [Gliquidone] the HCT116-GFP viability was 92.2%. For `COc1ccc([C@@H]2Sc3ccccc3N(CCN(C)C)C(=O)[C@@H]2OC(C)=O)cc1` [Diltiazem hydrochloride], the HCT116-GFP viability was 104%. Work on `Cc1cn([C@H]2C[C@H](N=[N+]=[N-])[C@@H](CO)O2)c(=O)[nH]c1=O` [Zidovudine, AZT] yielded an HCT116-GFP viability of 76.2%. `CN(C)c1cc(NC(=O)CNC(C)(C)C)c(O)c2c1C[C@H]1C[C@H]3[C@H](N(C)C)C(O)=C(C(N)=O)C(=O)[C@@]3(O)C(O)=C1C2=O` [Tigecycline] showed an HCT116-GFP viability of 101%. For `COc1cc(NS(=O)(=O)c2ccc(N)cc2)nc(OC)n1` [Sulfadimethoxine], the HCT116-GFP viability was 127%. `CC[N+](CC)(CC(=O)Nc1c(C)cccc1C)Cc1ccccc1` [Denatonium benzoate] showed an HCT116-GFP viability of 95.7%. `CC1(C)O[C@@H]2[C@@H](CO[C@@]3(COS(N)(=O)=O)OC(C)(C)O[C@@H]23)O1` [Topiramate] was tested, and the HCT116-GFP viability was 102%. For `Cc1cccc(Nc2ccncc2S(=O)(=O)NC(=O)NC(C)C)c1` [Torsemide], the HCT116-GFP viability was 109%. For `NC(=O)N1c2ccccc2CC(=O)c2ccccc21` [Oxcarbazepine], the HCT116-GFP viability was 88.3%. `CC(C)Cn1cnc2c(N)nc3ccccc3c21` [Imiquimod] was tested, and the HCT116-GFP viability was 93.6%. For `CC(C)NC(=N)NC(=N)Nc1ccc(Cl)cc1` [Proguanil hydrochloride], the HCT116-GFP viability was 82.9%. Work on `COc1ccc2c3c1O[C@H]1C[C@@H](O)C=C[C@@]31CCN(C)C2` [Galanthamine hydrobromide] yielded an HCT116-GFP viability of 99.6%. `O=c1[nH]c(=O)n([C@H]2C[C@H](O)[C@@H](CO)O2)cc1C(F)(F)F` [Trifluridine] showed an HCT116-GFP viability of 32%. Work on `Cc1nnc(SCC2=C(C(=O)O)N3C(=O)[C@@H](NC(=O)Cn4cnnn4)[C@H]3SC2)s1` [Cefazolin sodium salt] yielded an HCT116-GFP viability of 120%. `S=c1[nH]cnc2nc[nH]c12` [Mercaptopurine] gave an HCT116-GFP viability of 45.2%. For `CCCCCCCCNC(C)C(O)c1ccc(SC(C)C)cc1` (centres undefined) [Suloctidil], the HCT116-GFP viability was 17.9%. In the case of `CC(=O)CC(c1ccc([N+](=O)[O-])cc1)c1c(O)c2ccccc2oc1=O` (centres undefined) [Acenocoumarol], the HCT116-GFP viability is reported as 95.4%. In the case of `CN(Cc1ccc(C(C)(C)C)cc1)Cc1cccc2ccccc12` [Butenafine Hydrochloride], the HCT116-GFP viability is reported as 86.7%. `COc1ccccc1OCC(O)CO` (centres undefined) [Guaifenesin] showed an HCT116-GFP viability of 96%. Work on `NC[C@@H]1O[C@H](O[C@H]2[C@@H](O)[C@H](O[C@@H]3[C@@H](O)[C@H](N)C[C@H](N)[C@H]3O[C@H]3O[C@H](CO)[C@@H](O)[C@H](O)[C@H]3N)O[C@@H]2CO)[C@H](N)[C@@H](O)[C@@H]1O` [Paromomycin sulfate] yielded an HCT116-GFP viability of 103%. Molecule `Nc1nc(CC(=O)Nc2ccc(CCNC[C@H](O)c3ccccc3)cc2)cs1` [Mirabegron] has an HCT116-GFP viability of 76.5%. With `CC(=O)[C@H]1CC[C@H]2[C@@H]3C=CC4=CC(=O)CC[C@@]4(C)[C@@H]3CC[C@]12C` [Dydrogesterone] the HCT116-GFP viability was 110%. For `CN1[C@@H]2CC[C@H]1C[C@@H](OC(=O)c1c[nH]c3ccccc13)C2` [Tropisetron hydrochloride], the HCT116-GFP viability was 94.2%. `N#Cc1cc(NC(=O)C(=O)O)c(Cl)c(NC(=O)C(=O)O)c1` [Lodoxamide] was tested, and the HCT116-GFP viability was 87.3%. With `Cc1cccc(C)c1OCC(C)N` (centres undefined) [Mexiletine hydrochloride] the HCT116-GFP viability was 98.8%. In the case of `COc1ccc(/C=C/C(=O)Nc2ccccc2C(=O)O)cc1OC` [Tranilast], the HCT116-GFP viability is reported as 99.3%. `CCOC(=O)C1=C(COCCN)NC(C)=C(C(=O)OC)C1c1ccccc1Cl` (centres undefined) [Amlodipine] gave an HCT116-GFP viability of 32.7%. With `Cc1c(N(C)C)c(=O)n(-c2ccccc2)n1C` [Amidopyrine] the HCT116-GFP viability was 104%. For `Oc1c(Cl)cc(Cl)c(Cl)c1Cc1c(O)c(Cl)cc(Cl)c1Cl` [Hexachlorophene], the HCT116-GFP viability was 16.8%. For `Cc1cccc(C)c1NC(=O)C(C)N` (centres undefined) [Tocainide hydrochloride], the HCT116-GFP viability was 104%. With `CC(C(=O)O)c1ccc2c(c1)[nH]c1ccc(Cl)cc12` (centres undefined) [Carprofen] the HCT116-GFP viability was 92.5%. Work on `CCCCc1cc2ccccc2c(OCCN(C)C)n1` [Dimethisoquin hydrochloride] yielded an HCT116-GFP viability of 91.1%. `CN(C)C(=O)C(CCN1CCC(O)(c2ccc(Cl)cc2)CC1)(c1ccccc1)c1ccccc1` [Loperamide hydrochloride] gave an HCT116-GFP viability of 47.9%. In the case of `CC(C(=O)O)c1ccc(-c2ccccc2)c(F)c1` (centres undefined) [Flurbiprofen], the HCT116-GFP viability is reported as 95%. Work on `O=C(OCC(O)CO)c1ccccc1Nc1ccnc2cc(Cl)ccc12` (centres undefined) [Glafenine hydrochloride] yielded an HCT116-GFP viability of 100%. `C[C@H]1O[C@@H](O[C@H]2[C@@H](O)C[C@H](O[C@H]3[C@@H](O)C[C@H](O[C@H]4CC[C@@]5(C)[C@H](CC[C@@H]6[C@@H]5C[C@@H](O)[C@]5(C)[C@@H](C7=CC(=O)OC7)CC[C@]65O)C4)O[C@@H]3C)O[C@@H]2C)C[C@H](O)[C@@H]1O` [Digoxin] was tested, and the HCT116-GFP viability was 4.42%. Molecule `COc1cc([S+](C)[O-])ccc1-c1nc2cccnc2[nH]1` (centres undefined) [Sulmazole] has an HCT116-GFP viability of 117%. `C(=C\c1ccccc1)/CN1CCN(C(c2ccccc2)c2ccccc2)CC1` [Cinnarizine] showed an HCT116-GFP viability of 97.8%. For `O=C(C1CCCCC1)N1CC(=O)N2CCc3ccccc3C2C1` (centres undefined) [Praziquantel], the HCT116-GFP viability was 100%. Work on `CN1CCC(=C2c3ccccc3CCc3cccnc32)CC1` [Azatadine maleate] yielded an HCT116-GFP viability of 94.3%. `Nc1nc2ccc(OC(F)(F)F)cc2s1` [Riluzole hydrochloride] showed an HCT116-GFP viability of 93.2%. In the case of `COc1ccc2c(c1)c(CC(=O)O)c(C)n2C(=O)c1ccc(Cl)cc1` [Indomethacin], the HCT116-GFP viability is reported as 87.1%. With `C=C1c2c(Cl)ccc(O)c2C(=O)C2=C(O)[C@]3(O)C(=O)C(C(N)=O)=C(O)[C@@H](N(C)C)[C@@H]3[C@@H](O)[C@H]12.O=C(O)c1cc(S(=O)(=O)O)ccc1O` [Meclocycline sulfosalicylate] the HCT116-GFP viability was 58.1%. In the case of `CC(C)(C)NCC(O)COc1cccc2c1CCC(=O)N2` (centres undefined) [Carteolol hydrochloride], the HCT116-GFP viability is reported as 98.6%. `CC(=O)NCCCS(=O)(=O)O` [Acamprosate calcium] showed an HCT116-GFP viability of 102%. Molecule `CCOC(=O)O[C@]1(C(=O)COC(=O)CC)CC[C@H]2[C@@H]3CCC4=CC(=O)C=C[C@]4(C)[C@H]3[C@@H](O)C[C@@]21C` [Prednicarbate] has an HCT116-GFP viability of 84.9%. Molecule `CC[C@H](C)[C@H](N)C1=N[C@H](C(=O)N[C@@H](CC(C)C)C(=O)N[C@H](CCC(=O)O)C(=O)N[C@H](C(=O)N[C@H]2CCCCNC(=O)[C@H](CC(N)=O)NC(=O)[C@@H](CC(=O)O)NC(=O)[C@H](Cc3cnc[nH]3)NC(=O)[C@@H](Cc3ccccc3)NC(=O)[C@H]([C@@H](C)CC)NC(=O)[C@@H](CCCN)NC2=O)[C@@H](C)CC)CS1` [Bacitracin] has an HCT116-GFP viability of 97.3%. With `COc1ccc(OC)c(C(O)CNC(=O)CN)c1` (centres undefined) [Midodrine hydrochloride] the HCT116-GFP viability was 102%. `CN(C)CCN1C(=O)c2ccccc2N(C)c2ccccc21` [Dibenzepine hydrochloride] was tested, and the HCT116-GFP viability was 106%. Work on `CN1CCN(CCCN2c3ccccc3Sc3ccc(C(F)(F)F)cc32)CC1` [Trifluoperazine dihydrochloride] yielded an HCT116-GFP viability of 44.1%. `Nc1ccn([C@H]2CC[C@@H](CO)O2)c(=O)n1` [Zalcitabine] was tested, and the HCT116-GFP viability was 107%. `CN(C(=O)C(Cl)Cl)c1ccc(OC(=O)c2ccco2)cc1` [Diloxanide furoate] gave an HCT116-GFP viability of 103%. `CC(=O)c1ccc2c(c1)N(CCCN(C)C)c1ccccc1S2` [Acetopromazine maleate salt] gave an HCT116-GFP viability of 84.5%. `CN(C)CCOC(C)(c1ccccc1)c1ccccn1` (centres undefined) [Doxylamine succinate] showed an HCT116-GFP viability of 90.5%. `CC(C)(C#N)c1cc(Cn2cncn2)cc(C(C)(C)C#N)c1` [Anastrozole] was tested, and the HCT116-GFP viability was 85.9%. `Oc1c(I)cc(Cl)c2cccnc12` [Clioquinol] gave an HCT116-GFP viability of 60.7%. Work on `O=C(O)c1cn(C2CC2)c2cc(N3CCNCC3)c(F)cc2c1=O` [Ciprofloxacin hydrochloride monohydrate] yielded an HCT116-GFP viability of 98.5%. With `C#CCN[C@@H]1CCc2ccccc21` [Rasagiline] the HCT116-GFP viability was 91%. `COc1ccc(-c2cc(=S)ss2)cc1` [Anethole-trithione] was tested, and the HCT116-GFP viability was 92.8%. In the case of `COc1cc(C(=O)NCc2ccc(OCCN(C)C)cc2)cc(OC)c1OC` [Trimethobenzamide hydrochloride], the HCT116-GFP viability is reported as 104%. Work on `C1CCC(C(CC2CCCCN2)C2CCCCC2)CC1` (centres undefined) [Perhexiline maleate] yielded an HCT116-GFP viability of 4.24%.
